The IC50 comes from the fitted curve, where viability falls to half of the control; a limit (>, <) means that the fit lies beyond the doses tested. For AUC the same curve is integrated over the 256-fold range of doses and scaled to a fraction; it is 1 without any effect and falls as sensitivity rises. For some of these results: An inferred top dose comes from the curve model; the source does not state it. For some of these results: An entry number marks a drug with two screens in the source, which often give different values.
Columns and labels:
Test in all cases: Viability of human cancer cell lines after 72 h of drug (GDSC screen)
Tamoxifen = compound: CC/C(=C(\c1ccccc1)c1ccc(OCCN(C)C)cc1)c1ccccc1 [Tamoxifen]; conditions: top dose 5 µM
Experimental: (§1)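 Human cancer cell lines in 384-well plates, medium with 10% serum, drug for 72 h over a 256-fold dose range (nine 2-fold or five 4-fold steps up to the top dose). Adherent lines were fixed and stained with the nucleic acid dye Syto60, suspension lines read with resazurin; signal relative to control wells, capped at 0 and 100%. One two-parameter sigmoid per drug and line, fitted in a mixed model over all curves with the slope shared within a line.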

VNLG/124 = compound: CCCC(=O)OCc1ccc(OC(=O)/C=C(C)/C=C/C=C(C)/C=C/C2=C(C)CCCC2(C)C)cc1 [VNLG/124]; conditions: top dose 5.12 µM; top dose inferred
Experimental: as §1

Elesclomol = compound: CN(NC(=O)CC(=O)NN(C)C(=S)c1ccccc1)C(=S)c1ccccc1 [Elesclomol]; conditions: top dose 0.2 µM; top dose inferred
Experimental: as §1

HG-5-88-01 = compound: COc1cc(N2CCC(C(N)=O)CC2)ccc1Nc1nc(N)c(Cl)c(Nc2ccccc2S(=O)(=O)C(C)C)n1 [HG-5-88-01]; conditions: top dose 10 µM; top dose inferred
Experimental: as §1

Bleomycin = compound: Cc1c(N)nc([C@H](CC(N)=O)NC[C@H](N)C(N)=O)nc1C(=O)N[C@H](C(=O)N[C@H](C)[C@@H](O)[C@H](C)C(=O)N[C@H](C(=O)NCCc1nc(-c2nc(C(=O)NCCC[S+](C)C)cs2)cs1)[C@@H](C)O)[C@@H](OC1OC(CO)C(O)C(O)C1OC1OC(CO)C(O)C(OC(N)=O)C1O)c1cnc[nH]1 [Bleomycin]
Experimental: as §1

Masitinib = compound: Cc1ccc(NC(=O)c2ccc(CN3CCN(C)CC3)cc2)cc1Nc1nc(-c2cccnc2)cs1 [Masitinib]; conditions: top dose 20 µM
Experimental: as §1

LAQ824 = compound: O=C(/C=C/c1ccc(CN(CCO)CCc2c[nH]c3ccccc23)cc1)NO [LAQ824]; conditions: top dose 1.024 µM; top dose inferred
Experimental: as §1

OSI-930 = compound: O=C(Nc1ccc(OC(F)(F)F)cc1)c1sccc1NCc1ccnc2ccccc12 [OSI-930]; conditions: top dose 10.24 µM
Experimental: as §1

BX-912 = compound: O=C(Nc1cccc(Nc2ncc(Br)c(NCCc3cnc[nH]3)n2)c1)N1CCCC1 [BX-912]; conditions: top dose 10.24 µM; top dose inferred
Experimental: as §1

NSC-87877 = compound: O=S(=O)(O)c1ccc2cc(N=Nc3cc(S(=O)(=O)O)c4cccnc4c3O)ccc2c1 [NSC-87877]; conditions: top dose 16 µM; top dose inferred
Experimental: as §1

[1] = top dose 50 µM, screen: GDSC drug entry 1378, top dose inferred
[2] = top dose 64 µM, screen: GDSC drug entry 190

| Cell Line | AUC (Tamoxifen) | IC50 (Tamoxifen) [µM] | AUC (VNLG/124) | IC50 (VNLG/124) [µM] | AUC (Elesclomol) | IC50 (Elesclomol) [µM] | AUC (HG-5-88-01) | IC50 (HG-5-88-01) [µM] | AUC (Bleomycin; [1]) | IC50 (Bleomycin; [1]) [µM] | AUC (Bleomycin; [2]) | IC50 (Bleomycin; [2]) [µM] | AUC (Masitinib) | IC50 (Masitinib) [µM] | AUC (LAQ824) | IC50 (LAQ824) [µM] | AUC (OSI-930) | IC50 (OSI-930) [µM] | AUC (BX-912) | IC50 (BX-912) [µM] | AUC (NSC-87877) | IC50 (NSC-87877) [µM] |
| --- | --- | --- | --- | --- | --- | --- | --- | --- | --- | --- | --- | --- | --- | --- | --- | --- | --- | --- | --- | --- | --- | --- |
| JJN-3 (haematopoietic neoplasm, suspension) | 0.974 | > 5 | 0.971 | > 5.12 | 0.486 | 0.0116 | 0.961 | > 10 | 0.959 | > 50 | 0.863 | 39.8 | 0.724 | 4.68 | 0.395 | 0.035 | 0.926 | > 10.2 | 0.808 | 4.17 | 0.989 | > 16 |
| JHU-022 (head and neck, adherent) | 0.954 | > 5 | 0.981 | > 5.12 | 0.301 | 0.00294 | 0.883 | > 10 | 0.341 | 0.999 | 0.79 | 37.4 | 0.906 | > 20 | 0.654 | 0.192 | 0.982 | > 10.2 | 0.931 | > 10.2 | 0.977 | > 16 |
| NCI-H1651 (lung adenocarcinoma, adherent) | 0.985 | > 5 | 0.987 | > 5.12 | 0.776 | 0.0858 | 0.985 | > 10 | 0.598 | 5.94 | 0.269 | 0.826 | 0.979 | > 20 | 0.438 | 0.0428 | 0.961 | > 10.2 | 0.987 | > 10.2 | 0.985 | > 16 |
| RVH-421 (melanoma, adherent) | 0.954 | > 5 | 0.952 | > 5.12 | 0.767 | 0.102 | 0.957 | > 10 | 0.714 | 16 | 0.452 | 2.82 | 0.831 | 19.7 | 0.464 | 0.0491 | 0.86 | > 10.2 | 0.892 | > 10.2 | 0.929 | > 16 |
| GB-1 (glioma, adherent) | 0.971 | > 5 | 0.972 | > 5.12 | 0.41 | 0.00677 | 0.923 | > 10 | 0.616 | 6.91 | 0.244 | 0.625 | 0.951 | > 20 | 0.378 | 0.0278 | 0.977 | > 10.2 | 0.939 | > 10.2 | 0.972 | > 16 |
| ES1 (Ewing sarcoma, adherent) | 0.978 | > 5 | 0.952 | > 5.12 | 0.142 | 0.000973 | 0.709 | 2.4 | 0.175 | 0.331 | 0.067 | < 0.25 | 0.703 | 4.61 | 0.359 | 0.0263 | 0.826 | 6.09 | 0.568 | 0.982 | 0.872 | 14.8 |
| NB(TU)1-10 (neuroblastoma, adherent) | 0.993 | > 5 | 0.973 | > 5.12 | 0.985 | > 0.2 | 0.993 | > 10 | 0.973 | > 50 | 0.816 | 29.7 | 0.961 | > 20 | 0.325 | 0.0225 | 0.982 | > 10.2 | 0.989 | > 10.2 | 0.981 | > 16 |
| KP-N-YN (neuroblastoma, adherent) | 0.985 | > 5 | 0.987 | > 5.12 | 0.719 | 0.0558 | 0.913 | > 10 | 0.785 | 23.7 | 0.778 | 28.5 | 0.951 | > 20 | 0.64 | 0.162 | 0.978 | > 10.2 | 0.977 | > 10.2 | 0.985 | > 16 |
| MHH-ES-1 (Ewing sarcoma, adherent) | 0.984 | > 5 | 0.973 | > 5.12 | 0.254 | 0.00249 | 0.766 | 3.63 | 0.125 | 0.202 | 0.199 | 0.521 | 0.854 | 15.4 | 0.373 | 0.0286 | 0.948 | > 10.2 | 0.445 | 0.454 | 0.969 | > 16 |
| Hs766T (pancreas, adherent) | 0.981 | > 5 | 0.982 | > 5.12 | 0.66 | 0.0405 | 0.961 | > 10 | 0.84 | > 50 | 0.833 | 61.4 | 0.981 | > 20 | 0.623 | 0.156 | 0.969 | > 10.2 | 0.984 | > 10.2 | 0.984 | > 16 |

From the supplement of paper PMC4967469
